Several values for one entry are separate records, joined by “and”; a condition that tells them apart may be missing. Identical values can stand only once. Out of some 110,000 compounds screened, about 230 (0.21%) showed an effect of 50% or more. This is one part of the list.
Molecular target: DPAP1 (Plasmodium falciparum, UniProt Q8IIJ9)
Test: primary screen, percent inhibition; read by cleavage of a fluorogenic dipeptide substrate; higher = more effect of the substance
Parameters: species or system P. falciparum D10 trophozoite lysates; single well
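Note: 30 min substrate incubation versus DMSO and 10 µM JCP410 controls.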

Sequence of DPAP1 (Q8IIJ9 whole entry, looked up): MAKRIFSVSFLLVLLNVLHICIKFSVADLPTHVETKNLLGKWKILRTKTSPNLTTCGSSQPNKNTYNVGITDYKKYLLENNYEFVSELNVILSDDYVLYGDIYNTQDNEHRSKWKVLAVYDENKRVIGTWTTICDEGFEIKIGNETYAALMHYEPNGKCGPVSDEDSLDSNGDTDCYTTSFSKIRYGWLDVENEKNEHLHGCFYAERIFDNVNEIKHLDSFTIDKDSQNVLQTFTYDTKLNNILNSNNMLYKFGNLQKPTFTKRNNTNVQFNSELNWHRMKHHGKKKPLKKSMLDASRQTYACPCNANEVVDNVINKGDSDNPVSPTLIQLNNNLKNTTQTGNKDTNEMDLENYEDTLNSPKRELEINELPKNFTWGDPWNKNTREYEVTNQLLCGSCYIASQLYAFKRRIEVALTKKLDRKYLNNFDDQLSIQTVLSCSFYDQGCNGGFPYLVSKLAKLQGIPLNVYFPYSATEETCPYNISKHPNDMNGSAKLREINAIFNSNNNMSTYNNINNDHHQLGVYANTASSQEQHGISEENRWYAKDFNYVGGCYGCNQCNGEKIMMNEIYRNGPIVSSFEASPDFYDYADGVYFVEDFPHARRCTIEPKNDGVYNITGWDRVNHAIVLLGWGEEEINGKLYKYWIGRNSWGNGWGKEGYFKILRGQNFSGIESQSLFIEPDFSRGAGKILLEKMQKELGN

First: COc1ccc(OC)c(C2C3=C(O)CCCC3=NC(C)=C2C(=O)Nc2cccc(C(F)(F)F)c2)c1 (centres unmarked)
Second: COc1ccccc1C1C2=C(O)CCCC2=NC(C)=C1C(=O)OCCc1ccccc1 (centres unmarked)
The “% Inhibition @ 10 uM” value of the first is lower: -5.34% for the first, 4.35% for the second.

Going from `Nc1c(C(=O)NCc2ccco2)nnn1-c1ccccc1` to `O=C(Cn1ncc2c3ccccc3n(Cc3ccccc3)c2c1=O)NCc1ccco1`, the “% Inhibition @ 10 uM” value falls from 6.65% to -1.58%.

Compared with `Cc1cc(C)nc(O)c1`, `Cc1nc(C)c(Cc2ccccc2Cl)c(O)n1` is higher in “% Inhibition @ 10 uM” value: -1.62% for the first, -0.622% for the second.

Compared with `O=C(NCc1ccccc1Cl)C1CCN(S(=O)(=O)c2cccc3nonc23)CC1`, `O=C(NCc1ccccc1Cl)C1CCCN(c2nc3ccsc3c(=O)s2)C1` (centres unmarked) is higher in “% Inhibition @ 10 uM” value: -3.21% for the first, -2.74% for the second.

First: CC(C)NC(=O)Cc1c(O)nc2ccccc2c1O
Second: COc1cccc(-c2nc(CSCC(=O)NC(C)C)c(C)o2)c1
The “% Inhibition @ 10 uM” value of the first is higher: 1.27% for the first, -2.85% for the second.

Going from `O=C(CSc1ccc(Br)cc1)Nc1ccc(Cl)cc1` to `O=C(CSCCO)Nc1nc(-c2ccc(Br)cc2)cs1`, the “% Inhibition @ 10 uM” value falls from -2.64% to -4.02%.

First: CCN1CCCC1CNC(=O)C1CCCN(c2nn3c(=O)cc(C)nc3s2)C1 (centres unmarked)
Second: CCN(CC)CCNC(=O)C1CCN(c2ncnc3c2nc2n3CCCCC2)CC1
The “% Inhibition @ 10 uM” value of the first is higher: 3% for the first, 2.36% for the second.

Compared with `COc1ccc(N2C(=O)C(NC(=O)C(C)(C)C)(C(F)(F)F)C3=C2CC(C)(C)CC3=O)cc1` (centres unmarked), `COc1ccc(C2C(C#N)=C(N)OC3=C2C(=O)CC(C)(C)C3)cc1COc1ccc(C)cc1` (centres unmarked) is higher in “% Inhibition @ 10 uM” value: -2.21% for the first, 1.57% for the second.

Compared with `O=C(Nc1ccccc1O)c1ccc2c(c1)C(=O)N(Cc1ccco1)C2=O`, `Cc1ccc2sc(-c3ccc(NC(=O)c4ccco4)cc3)nc2c1` is lower in “% Inhibition @ 10 uM” value: 5.31% for the first, 2.6% for the second.

Compared with `CCOC(=O)NC(Cc1c[nH]c2ccccc12)C(=O)NCCc1ccc(S(N)(=O)=O)cc1` (centres unmarked), `CCn1c(C(=O)O)c(CNCCc2ccc(Cl)cc2)c2ccccc21` is higher in “% Inhibition @ 10 uM” value: -6.5% for the first, -1.44% for the second.

Compared with `COc1cccc(C(=O)Nc2nc(C)cc(C)n2)c1OC`, `COc1ccc(-c2nnc(NC(=O)C(C)(C)C)s2)cc1OC` is lower in “% Inhibition @ 10 uM” value: 3.32% for the first, -10% for the second.

Compared with `Cc1ccc(C(C)C)c(OCc2nc3c4cnn(C)c4ncn3n2)c1`, `COc1ccc(Br)cc1CNC(=O)c1cc2sc(C)cc2n1C` is lower in “% Inhibition @ 10 uM” value: -0.386% for the first, -3.08% for the second.

Going from `CCC(=O)Nc1c(-c2ccccc2)nc2c(C)cccn12` to `COc1ccc(NC(=O)CSc2nc(O)c(C#N)c(-c3ccccc3)n2)cc1`, the “% Inhibition @ 10 uM” value falls from 1.97% to -6.69%.

First: CC1CCc2cccc3c(O)cc(=O)n1c23 (centres unmarked)
Second: CC(=O)N1CC(c2ccccc2)CC1=O (centres unmarked)
The “% Inhibition @ 10 uM” value of the first is lower: -0.25% for the first, 0.131% for the second.

Going from `COc1ccc(-c2cc(C(=O)NC3CC3)c3ccccc3n2)cc1` to `COc1ccc(-c2cc(C(=O)Nc3ccc4c(c3)OCO4)c3ccccc3n2)c(OC)c1`, the “% Inhibition @ 10 uM” value falls from -9.73% to -11.5%.

Compared with `CCN(CC)c1ccc2c(N3CCCCC3)cc(=O)oc2c1`, `CCc1nc2c(=O)oc3ccccc3c2n1CC` is higher in “% Inhibition @ 10 uM” value: -2.97% for the first, -1.68% for the second.

Compared with `CC(=O)N1c2ccc(N)cc2C(C)(c2ccccc2)CC1(C)C` (centres unmarked), `CC1(C)Cc2ccccc2C2=Nc3ccccc3C(=O)C21` (centres unmarked) is lower in “% Inhibition @ 10 uM” value: 4.17% for the first, -5.68% for the second.

First: Cc1ccc(C2=NN(CC(=O)NC3CCCCC3C)C(=O)CC2)cc1 (centres unmarked)
Second: O=C1C(c2ccc(F)cc2)N(CCC2=CCCCC2)C(=O)CN1C1CCCCC1 (centres unmarked)
The “% Inhibition @ 10 uM” value of the first is lower: -4.83% for the first, -3.94% for the second.

Going from `O=C1NC(=O)N(c2ccc(Cl)cc2)C(=O)/C1=C\Nc1ccc(C(=O)N2CCCCC2)cc1` to `COc1ccccc1C1C(C(=O)Nc2ccc(Cl)cc2)=C(C)Nc2nc(CCCO)nn21` (centres unmarked), the “% Inhibition @ 10 uM” value falls from 5.89% to 0.528%.

First: COc1ccc2[nH]c(-c3ccc(C#N)cc3)nc2c1
Second: N#C/C(=C\c1c[nH]nc1-c1ccccc1)S(=O)(=O)c1ccc(Cl)cc1
The “% Inhibition @ 10 uM” value of the first is higher: 5.69% for the first, 3.54% for the second.

Going from `Cc1nc(N2CCCCC2)c2c(C)c(C(=O)N3CCN(c4ccccn4)CC3)sc2n1` to `CCOC(=O)N1CCN(c2cc(C)nc3nc(Cc4ccc(Cl)cc4)nn23)CC1`, the “% Inhibition @ 10 uM” value falls from 1.2% to -0.946%.

First: O=C(NC1CCN(Cc2ccccc2)CC1)C1CCN(c2nc3ccccc3n3cccc23)CC1
Second: c1ccc(CC2CCN(c3nc4ccccc4c4nc(-c5cccnc5)nn34)CC2)cc1
The “% Inhibition @ 10 uM” value of the first is lower: -0.495% for the first, 4.16% for the second.

Going from `Cc1ccc(-n2cnc3ncnc(-c4ccccc4)c32)cc1` to `CCc1sc2ncnc(O)c2c1-c1ccccc1`, the “% Inhibition @ 10 uM” value rises from -3.49% to 2.18%.

Going from `CC(=O)NS(=O)(=O)c1cccnc1Nc1cccc(Cl)c1` to `COc1ccccc1N(CC(=O)NCc1ccccn1)S(C)(=O)=O`, the “% Inhibition @ 10 uM” value rises from 2.13% to 2.44%.

Compared with `CC1=C(C(=O)Nc2ccccc2C)C(c2ccc(Cl)cc2)n2ncnc2N1` (centres unmarked), `O=S(=O)(c1ccc(Cl)cc1)N1CCCc2ccccc21` is higher in “% Inhibition @ 10 uM” value: -3.41% for the first, -1.62% for the second.

Going from `COc1cc(CN(C)CCN(C)C)cc(Br)c1O` to `CN(C)CCCN1C(=O)C(O)=C(C(=O)c2ccc(S(=O)(=O)N(C)C)cc2)C1c1ccco1` (centres unmarked), the “% Inhibition @ 10 uM” value falls from 0.815% to -3.06%.

Compared with `Cc1ccc(S(=O)(=O)N(CCC(=O)O)Cc2ccccc2)cc1`, `Cc1ccc(S(=O)(=O)O)cc1` is higher in “% Inhibition @ 10 uM” value: -1.99% for the first, -1.29% for the second.

Going from `CCN(CC)CCNC(=O)Cc1c(C)nc2c(-c3ccc(F)cc3)c(C)nn2c1C` to `CCOCCCNC(=O)CCc1c(C)nc2c(c(C)nn2C)c1C`, the “% Inhibition @ 10 uM” value rises from -12.1% to -4.24%.

Compared with `CCN(Cc1ccccc1)C(=O)Cn1cc2c(n1)CCCCCC2`, `CCOC(=O)c1c(NC(=O)c2ccccc2)sc2c1CCCC2` is lower in “% Inhibition @ 10 uM” value: 0.137% for the first, -1.76% for the second.

First: CCCCc1ccc(NS(=O)(=O)c2ccc(F)cc2)cc1
Second: O=C(Nc1ccc(S(=O)(=O)Nc2nccs2)cc1)c1ccc(Br)o1
The “% Inhibition @ 10 uM” value of the first is higher: 3.95% for the first, 2.69% for the second.

First: CCOC(=O)N1CCc2c(sc3c2C(=O)NC(c2ccc(O)c(OC)c2)N3)C1 (centres unmarked)
Second: COc1cc2c(cc1OC)C(C)N(C(=O)c1noc3c1COc1ccc(C)cc1-3)CC2 (centres unmarked)
The “% Inhibition @ 10 uM” value of the first is lower: 2.46% for the first, 7.87% for the second.

First: OCCN1CCN(Cc2ccc(F)cc2)CC1
Second: c1ccc(CN2CCN(Cc3ccco3)CC2)cc1
The “% Inhibition @ 10 uM” value of the first is lower: -2.6% for the first, 3.25% for the second.

Compared with `COc1ccc(NC(=O)C2C3CCC(C3)C2C(=O)O)c(OC)c1` (centres unmarked), `COc1ccc(OC)c(CN2CCNCC2)c1` is higher in “% Inhibition @ 10 uM” value: -3.12% for the first, 5.8% for the second.

Compared with `O=C1NC(=O)/C(=C\c2ccc(OCc3cccc(C(=O)O)c3)c(Cl)c2)N1`, `O=C1NC(=O)C(=Cc2ccc([N+](=O)[O-])o2)C(=O)N1` is lower in “% Inhibition @ 10 uM” value: -0.178% for the first, -2.81% for the second.

Going from `CCCCN(CCCC)c1ncnc2sc3c(c12)CCCC3` to `Cc1ccsc1C(=O)Nc1sc2c(c1C#N)CCCC2`, the “% Inhibition @ 10 uM” value falls from 3.7% to 2.38%.

First: CC(C)c1ccc(-c2c(C#N)c(N)nc3c2CCCCC3)cc1
Second: COC(=O)c1c(NC(=O)c2ccc(Cl)cc2)sc2c1CCC(C)C2 (centres unmarked)
The “% Inhibition @ 10 uM” value of the first is lower: -6.22% for the first, 9.1% for the second.

Compared with `CCN(CC)C(=O)CSc1nc2c(c(=O)n(C)c(=O)n2C)n1Cc1ccccc1C`, `CCOC(=O)N1CCN(Cc2nc3c(c(=O)n(C)c(=O)n3C)n2CC(=O)c2ccccc2)CC1` is higher in “% Inhibition @ 10 uM” value: -5.51% for the first, -3.23% for the second.

Going from `Nc1nnc2ccccc2n1` to `O=C(CSc1nnc(-c2ccco2)c(-c2ccco2)n1)Nc1cnc2ccccc2c1`, the “% Inhibition @ 10 uM” value falls from 1.72% to -3.96%.

First: CCCS(=O)(=O)N1CCC(C(=O)NCCN2CCC(Cc3ccccc3)CC2)CC1
Second: O=C(C1CCCN1S(=O)(=O)c1cccc2nsnc12)N1CCC(Cc2ccccc2)CC1 (centres unmarked)
The “% Inhibition @ 10 uM” value of the first is higher: -1.79% for the first, -4.1% for the second.

Compared with `Cn1cc(Br)c(C(=O)Nc2sc3c(c2C(N)=O)CCC3)n1`, `CCn1cc(C(=O)O)c(=O)c2cc(F)c(N3CCN(C(N)=S)CC3)cc21` is lower in “% Inhibition @ 10 uM” value: 1.02% for the first, -0.0404% for the second.

Compared with `O=S(=O)(c1ccc(-c2ccc(O)nn2)o1)N1CC=C(c2ccccc2)CC1`, `O=C(c1ccccc1)N1CCN(c2ncnc3c2oc2ccccc23)CC1` is higher in “% Inhibition @ 10 uM” value: -5.38% for the first, -1.72% for the second.

First: CC(C)OC(=O)/C(=C/c1ccco1)NC(=O)c1ccccc1
Second: COC(=O)C1=C(c2ccccc2)S(=O)(=O)CCN1C(C)=O
The “% Inhibition @ 10 uM” value of the first is lower: -4.74% for the first, 4.42% for the second.

Going from `COc1ccc(S(=O)(=O)NCCSCc2ccco2)c(Cl)c1Cl` to `COCCN1Cc2cccc(C(=O)NCc3ccc4c(c3)OCO4)c2C1=O`, the “% Inhibition @ 10 uM” value falls from 3.79% to -0.499%.

Compared with `O=C(COC(=O)c1ccccc1F)c1ccc(-n2nncc2-c2ccccc2)cc1`, `CCN(C(=O)Cc1coc2ccc3ccccc3c12)c1ccccc1` is higher in “% Inhibition @ 10 uM” value: -4.32% for the first, 9.61% for the second.

First: CC(C)C[C@H](NC(=O)c1cc(F)cc(F)c1F)C(=O)NCC#N
Second: CCN(CC)S(=O)(=O)c1cc(C(=O)O)c(Cl)cc1Cl
The “% Inhibition @ 10 uM” value of the first is lower: -4.72% for the first, 2.76% for the second.

First: COc1cc2c(cc1OC)CN(S(=O)(=O)c1cccc(S(=O)(=O)N3CCOCC3)c1)CC2
Second: CCOC(=O)c1cc(-c2ccccc2)n(CC(=O)N2CCCC2)c1C
The “% Inhibition @ 10 uM” value of the first is higher: 3.88% for the first, 1.2% for the second.

First: CCOc1ccc2nc(N3CCC(C(=O)Nc4ccc(Cl)cn4)CC3)sc2c1
Second: CC(C)(C)c1ccc(OCCCCCN2CCCCC2)cc1
The “% Inhibition @ 10 uM” value of the first is lower: 4.95% for the first, 5.01% for the second.

Going from `CC1CCCC(C)N1CCCNC(=O)C1CCCN(S(=O)(=O)N2CCC3(CC2)OCCO3)C1` (centres unmarked) to `C(CN1CCOCC1)NC1CC2CCC1C2` (centres unmarked), the “% Inhibition @ 10 uM” value rises from -2.26% to -0.0908%.

Going from `CN1C(C(=O)NCc2cccnc2)=CC(c2ccco2)=NS1(=O)=O` to `Cc1ccc(CNC(=O)c2cccnc2)cc1`, the “% Inhibition @ 10 uM” value rises from 5.48% to 5.73%.

First: CC(C)(C)c1ccc(OCCCCCn2ccnc2)cc1
Second: Fc1ccccc1N1CCN(CCCc2ccccc2)CC1
The “% Inhibition @ 10 uM” value of the first is higher: 2.26% for the first, 1.62% for the second.

In the case of `Cc1ccc(S(=O)(=O)N(CC(=O)N(C)C)c2ccc(Cl)cc2)cc1`, the “% Inhibition @ 10 uM” value is reported as 0.851% and 1.19%.

Reference: paper PMC6919601, “Identification of Plasmodium dipeptidyl aminopeptidase allosteric inhibitors by high throughput screening” (PLoS ONE, 2019)
